To fix the notation:
B1: CPEB3 Ribozyme (parent)
chain: UAACAGGGGGCCACAGCAGAAGCGUUCACGUCGCAGCCCCUGUCAGAUUCUGGUGAAUCUGCGAAUUCUGCUGUAUAUCUC

The source gives no read counts; variants with many changes may rest on few reads.

The record followed here is the RNAGym collection of RNA variant scans (doi:10.1093/nar/gkz1192).

Variants of B1 are the subject of this series. In words: self-cleavage, relative activity (ratio to wild type); higher = more cleavage; in vitro, sequencing. The procedure, abridged: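 Relative activity was defined as the cleaved/total read fraction for a variant divided by the same fraction for the unmutated ribozyme. CPEB3 self-cleaving ribozyme libraries were made by rounds of error-prone PCR, barcoded, and transcribed in vitro with T7 RNA polymerase for 5 hours at 37°C, and cleavage ran through transcription plus a 15 min DNase I step before EDTA. Illumina sequencing of template-switched reverse transcripts gave the reads, and DNA sequencing mapped the barcodes. Averages come from three batches, using variants with at least 5 reads.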
Regarding U43A C62A A64C U80A, the self-cleavage came to 0.16.
With U41C U51C A56G C59U U72A, the self-cleavage was found to be 0.23.
As to U41C U58A A64G U80C, the self-cleavage is 0.2.
Consider U41C U72C U74C, for which the self-cleavage came to 1.31.
The figure for U43A A57G A65G is 0.55; for U41G A56G A57G U69C it is 0.27.
On to U41G U51A U78C, for which the self-cleavage is 0.27.
In the case of U43C A45U U66C U78C, the self-cleavage was found to be 0.45.
Turning to U43C A45U U49C A56G, the self-cleavage turned out to be 0.29.
U41C U48C U80A: the self-cleavage came out at 0.99.
Turning to G42C A47G C50A A57U, the self-cleavage was found to be 0.16.
Turning to G42C U58C G63A, the self-cleavage came to 0.18.
Take U41C U48A A77G: the self-cleavage is 0.37.
As for U41C U49C A56G A57G A64G A65C, the self-cleavage worked out at 0.12.
On to U41C U49C U78A, for which the self-cleavage amounted to 0.33.
The figure for U43A U60C G63U is 0.93; for U41C U48C U51C it is 0.6; for U41C U49C U72C it is 0.27.
Then U41G A56G U74C, with 0.16.
Regarding U41G A57G A77G, the self-cleavage was found to be 0.11.
U41C U76C U80G: the self-cleavage is 1.16.
Then U41C U76C U80A, with 1.22; and U43A U51C A64U U78C, with 0.38.
On to U41C U48C U54A, for which the self-cleavage was found to be 1.07.
Consider U43C A45G U66C U67C, for which the self-cleavage came out at 0.02.
As to U43A A56G U66A U69C U74A, the self-cleavage turned out to be 0.16.
For the variant U43A A45U U51A, the self-cleavage worked out at 0.35.
On to U43A A45G A64G, for which the self-cleavage was found to be 0.41.
Turning to U43C A45G U49C, the self-cleavage amounted to 0.23.
The figure for U43A U60A A65U is 0.13; for U41G U54A U80C it is 0.55.
On to U43A A45C G46A A47U U54C U72A, for which the self-cleavage was found to be 0.08.
With U43A U72C A75G, the self-cleavage amounted to 1.25.
As for U43A G52U U69C, the self-cleavage is 0.74.
Then U43A A47G U60C U67A U69A, with 0.32; and U43C A45G U49G G55A, with 0.18; and G42A A64C A65G, with 0.08.
Then U43C A45G U80C, with 0.74.
The figure for U41G A57G U58A U74A is 0.17; for U43C A45U A47G it is 0.14.
Take U41C U54C A56G: the self-cleavage worked out at 0.48.
In the case of G42U U43C U72A, the self-cleavage came out at 0.15.
On to G42A A45G A57G A75U U78G, for which the self-cleavage was determined as 0.09.
Turning to U43C A45U U54A A75U, the self-cleavage came to 0.15.
As for U41C U51A C68A, the self-cleavage turned out to be 0.44.
In the case of U43A U74C A75U, the self-cleavage was found to be 1.22.
Then U43A U54C U72C, with 1.27; and U43C A45G U74A A75G, with 0.54.
Then U41G G61A A77U, with 0.33; and U43C A45U U54A U74A A75G, with 0.24.
The figure for U41C U49C U74C U80C is 0.74; for U43A U49C G52C it is 0.5; for U43A U67C U76A U78C it is 0.33.
Regarding U41G U60C A64G U80C, the self-cleavage came to 0.44.
On to U41C U48C G61C U74A, for which the self-cleavage turned out to be 0.22.
As to U41C U48C A56G A57G, the self-cleavage worked out at 0.73.
On to G42A A65G U67G, for which the self-cleavage was determined as 0.12.
The figure for U41G U48A U51C U67C is 0.37; for U41C U54C A64U A77U U78C it is 0.26.
Consider U41C U51A A56G U67A U76C, for which the self-cleavage was 0.29.
Take U43A U54C A56U U74A: the self-cleavage turned out to be 1.05.
The figure for U43A U51C U72G is 0.99.
Consider U43A U51C U72C, for which the self-cleavage turned out to be 1.12.
Take U41G A64G A65U U66A: the self-cleavage turned out to be 0.12.
For U43A U72A U78C U80A, the self-cleavage amounted to 0.73.
For the variant G42U U51C A64G U66C, the self-cleavage came out at 0.1.
Turning to U43A G53A U76C, the self-cleavage was 1.11.
With U41C U49C U60A A64G, the self-cleavage worked out at 0.2.
On to U41C U49C U69A, for which the self-cleavage is 0.25.
On to U41C U51C U58A A64C, for which the self-cleavage stood at 0.14.
Take U41C U51A U72C: the self-cleavage came out at 1.14.
Take U43A A47U U66C: the self-cleavage was determined as 0.15.
For the variant G42A A45G U48A U60C U69C, the self-cleavage was determined as 0.09.
For the variant U43C A45G U66C U72C, the self-cleavage was 0.1.
U41C U66C U72A: the self-cleavage came out at 0.4.
With G42U U43A U67A, the self-cleavage stood at 0.15.
With U41C U43C U67A U69C U74C U78A, the self-cleavage is 0.06.
As for U43A A56G U67C C68U A75G, the self-cleavage worked out at 0.21.
Turning to U43A A45G U72C, the self-cleavage was determined as 0.95.
For the variant U43A C44A U54C U60C, the self-cleavage amounted to 0.22.
With U41G A56G G73A, the self-cleavage was found to be 0.3.
As to G42A A45G U67C, the self-cleavage turned out to be 0.18.
As for U43C A45U A64G U69A, the self-cleavage amounted to 0.1.
Turning to U41C U60A A64G U74A, the self-cleavage turned out to be 0.59.
Then U41C U51A A77G U80C, with 1.15; and U43A A57G U67A A77U, with 0.92; and U43A A56U A64G A65G, with 0.09.
Then G42A U72A G73A, with 0.08.
In the case of U41C U60C U69C, the self-cleavage amounted to 0.41.
In the case of U43A G53C U69G U72G, the self-cleavage was 0.3.
Then U43C A45G A75G, with 0.16.
Consider U43C A45U A47G U48A C59U, for which the self-cleavage is 0.16.
As to U43C A45U A56U U76C U78A, the self-cleavage is 0.04.
In the case of U41C U54C A57G U58C U76A U78C, the self-cleavage turned out to be 0.16.
As for U43A U54C A64G U69A, the self-cleavage amounted to 0.5.
The figure for U41C U49C U60C is 0.16.
With U41C U51C U54C U69A U80C, the self-cleavage came to 0.64.
Then G42U U48C U49C U58A C59U, with 0.1; and U43A A65G U66C, with 0.32; and U41C U48C C59A, with 0.17.
As for U41C U72G U80A, the self-cleavage stood at 1.26.
For the variant U41C U58C U60C, the self-cleavage is 0.24.
The figure for U41C U51C A64U A77G is 0.41; for U41C U51A U66A U78A it is 0.65; for U43A C68U U74A it is 1.25.
Take U43A U69G C81A: the self-cleavage stood at 0.87.
Consider U43A U51A U72A, for which the self-cleavage is 0.84.
The figure for U41G U54A A56G A65C U76C is 0.09; for U41C U54A A57G U69G it is 0.67.
For the variant G42A A64G C71A, the self-cleavage was determined as 0.15.
With U43A A56U U60C A64G, the self-cleavage was 0.14.
Then U43A C50U G53A, with 1.36.
In the case of U41C U51A A56G U80C, the self-cleavage stood at 1.06.
Regarding U41C U54C A57G G70A U74G A75G, the self-cleavage is 0.1.
For the variant U41C U43C U54C A75U, the self-cleavage turned out to be 0.27.
The figure for U41G U66A U76A is 0.09; for U41G U43C U49C U67C it is 0.1; for U41C U51C A64G it is 0.8.
As to U41C U76C U78C, the self-cleavage was 1.13.
For the variant U41G U60A U66C, the self-cleavage is 0.12.
Take U41C U48C U51C U58C: the self-cleavage came out at 0.09.
U41G U54G A56U A65G U69A: the self-cleavage is 0.06.
As for U43C A45U U67A U74C, the self-cleavage was 0.1.
As for U41C U54C A65U U76C, the self-cleavage was determined as 0.13.
U41G U48C A56G U78C: the self-cleavage came to 0.19.
U41C U43G U60C A65G C68U: the self-cleavage came to 0.15.
Take U41C U51C A57G A64G A65G: the self-cleavage was 0.31.
With U41C U67A U80A, the self-cleavage came out at 0.64.
In the case of G42U U74C A75G, the self-cleavage is 0.28.
Consider U41C U60C A64G U72G A77C, for which the self-cleavage came out at 0.36.
In the case of G42A U58C U80C, the self-cleavage was determined as 0.07.
With U41C U51C U78A, the self-cleavage amounted to 1.11.
In the case of G42A U49C U72A, the self-cleavage came to 0.11.
On to U41G U51C G53A A56G U60A U69C A75G, for which the self-cleavage came out at 0.06.
The figure for U43A G63C U78G is 1.15; for U41G A64G U72A it is 0.05.
Take G42U U49C U60C G63A U69C: the self-cleavage stood at 0.07.
Regarding U43A A45G A56U U69C, the self-cleavage was found to be 0.14.
Regarding G42A U54A U76A, the self-cleavage is 0.4.
For U41C U51C U60A A64U U69C, the self-cleavage stood at 0.47.
Consider U43A A45G A56G, for which the self-cleavage turned out to be 0.6.
The figure for G42A U49A G53U is 0.33.
Take U41C U60C U66C: the self-cleavage is 0.31.
Regarding U41C U48C A65G U67C, the self-cleavage stood at 0.15.
With U43A U54A U66C, the self-cleavage amounted to 0.69.
The figure for U43A G46U U72C is 0.36; for U41G U49C U54C U69A it is 0.15.
The figure for U41C U54A U80C is 1.12; for U43C A45G A56U U78C it is 0.39.
On to U41C U49A U69C U74C, for which the self-cleavage was 0.53.
As for U41C U49C U51A, the self-cleavage amounted to 0.7.
With U41C U49A A56G U60C A64G, the self-cleavage was 0.23.
For the variant U43A U54G A56G U60C, the self-cleavage turned out to be 0.32.
As for U41C U48C U54C U60C U67G U78A, the self-cleavage is 0.29.
Take U41C U69C G73U: the self-cleavage amounted to 0.78.
The figure for U43C A45G G70A is 0.13.
With U43A U48C U51C G52A A65G U69A, the self-cleavage came out at 0.32.
As to U43A U60A U67C, the self-cleavage was found to be 0.29.
As for U41C U66A U74A, the self-cleavage came out at 0.86.
On to U41C U66C U76C, for which the self-cleavage worked out at 0.
Take G42U U72A U76A: the self-cleavage came out at 0.03.
For U41C U49A G63U, the self-cleavage is 0.59.
On to U43C A45G A56G U67C, for which the self-cleavage is 0.1.
With U41C U48C U51A G55A, the self-cleavage is 0.37.
The figure for U43A U54G U60C U76A is 0.18; for U41C U58C U80C it is 0.87.
Consider U41C U49C A75G, for which the self-cleavage came out at 0.32.
